Sequences with one replicate were seen in a single cluster, so their values are uncertain.
System: ATP
Assay: switch fluorescence ratio, 500 uM ATP over buffer (Cy3 cluster intensity, sum of 5 cycles each) (fold (ratio)); higher = stronger signal-on switching upon ATP binding; sequences stand for … in TCGTCGGCAGCGTCAGATGTGTATAAGAGACAGTTTTTTTTTTTTTTTTTTTTTTTTT…TC
Conditions: aptamer strand: ATP DNA aptamer (quencher-CACCTGGGGGAGTATTGCGGAGGAAGG + anchor), 100 nM annealed; ATP concentration: 500 uM; one replicate
Outline: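 Cy3-labelled switching-strand clusters on a modified Illumina MiSeq flow-cell were annealed to 100 nM quencher-labelled ATP aptamer, imaged in selection buffer, then imaged after 15 min with 500 uM ATP at 22 °C. Five buffer/ATP cycles ran, with NaOH stripping and re-annealing between them. The fluorescence ratio is summed target-cycle over summed buffer-cycle Cy3 intensity per cluster, averaged per switch-domain sequence. Clusters outside 100-1000 RFU were excluded.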
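Further: ATP exposure 15 min at 22 °C before imaging.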

Sequence	switch fluorescence ratio
CCGTCTTCAC	1.03
CTCTTGAACT	0.972
ACTGTATGAC	1.11
AATCGATGCA	0.964
CCTTCACATC	2.89
TACACAGATC	0.979
CGATTTTTG	1.03
TAAGAGTTT	1
TTAGGAATGA	0.974
CAGCAGGGCC	0.983
GTTAGACGCT	1.04
AGCGGATGGG	0.985
GCAAATCGCT	1.02
AATCGCGATG	1
TCCCGCCCCT	1.57
TAGATTCAGA	0.979
TGGTAGATCG	1.04
GGGAACCAGT	0.97
TTCAACTATC	1.03
CCATGTATAG	1.04
TGATATGGTT	0.95
GAGTACGAAC	1.03
AGTTCATTTG	0.974

Sequence	switch fluorescence ratio
AGCATTGACA	1.14
GGAGCCTCTC	1.01
TTTTGCACTC	1.2
GATGATTGAC	1.04
AAGTTGGTG	0.962
TAAACATCGC	1.03
TGCACATAGC	1.08
TCCCATGCCG	0.979
CCAGATTGCC	0.95
TATTAGTTGA	0.995
CTTTCACTTG	1.04
CGGACCGCAG	1.24
AAGGTATAGT	1.01
GGCGCCTGTA	1.05
ATGGATTAC	1.05
ATACTTTGGA	0.998
ATTGCAATTG	0.988
TTTAGAGTCG	1.02
GTCAGAAGTG	0.947
GATAATTCCA	0.987
AACGATATAC	2.17
TAGGGTCTGC	1.03
TCGAACTACA	1.08

Sequence	switch fluorescence ratio
AAATAATGTA	1.01
TGACGACTAA	1.22
ACTCATGTTC	1.05
TTGAGTTCGC	1.03
AAGGCCATAA	0.952
GTTGGCCGTT	0.971
CCATCCTGTT	0.977
TACGTGAGT	0.976
CCGGCAGGCG	1.02
CTGGGTTTGC	0.961
GGACTCGGC	0.918
AATCTTACGG	1.05
AGTTGCTTAA	0.964
CGCCCATCAG	1.02
CGCAAGTCAG	1.59
GTAGTGGG	0.988
ACTCAACTTG	1.14
ACTGATGTC	1
ACCATACATT	1.22
ACAACTAACA	1.11
GGGAAGTTTC	1.03
CGCGCAACGC	1.97
TCTATTAGTC	1.02

Sequence	switch fluorescence ratio
GAGCCCCTGA	1.01
CGTTTGCGGC	1.05
GCGATATGGT	1.06
ACGATATTTC	1.05
TTTTGTCCG	0.967
ATTCGCAAC	3.96
ACAGGTAGGC	1
TTATTGTTAA	0.99
GCGTGTACCA	1.08
ATTGGAACAA	0.916
CAATATTGGG	0.981
AAGAATCACA	0.994
TCCTTTACAA	1.35
GAGGATTAGT	1.02
ACCCGTATTC	1
TTTAACGGCG	1.05
GGATAAATCA	1.02
TATAGTCATC	1
CGTGCCAAA	0.987
ACTGACCGAA	1.26
CGTTATCTTT	0.981
ATTAGGTAAG	1.03
GGCTCTACGC	1.08

Sequence	switch fluorescence ratio
CAAGAGGAAG	0.999
AAACTCCCGT	1.03
CGTAGAATCG	1
CATGTGCATT	1.13
TTTTGCACCA	1.04
AGTACGTGGT	1.01
AGTGTGGCT	0.968
GCCCCTGTCC	1.06
GGCCGCGCGA	1.05
GGCGCCGACA	0.983
ATGCCATTGA	0.958
TCCTCCTGGT	1.61
ATTAGATTCG	1
AAAGGGCTGA	0.908
AGTTTTTCAT	0.992
TTGTTTATCC	1
AATATTGTTT	0.993
CGTGAGCTTT	1.03
TTCTGTTCGG	0.956
TCACAGTCCT	1.06
GCGCACCGAA	1.04
TACTTGCCTT	1.06
GCACATAGTC	1.24

Sequence	switch fluorescence ratio
GCGGCACTCA	1.07
GACGAAGTCA	1.05
TGACAAA	1.04
TTAATACCGA	1.02
CAGGGCGTGC	1.05
AGTCGTTTAG	0.984
GCCCGACTCC	1.61
TGTGGAATC	1.01
GGGCAATGGG	1.02
CAAGTAGGT	0.991
ACGGTGTGAA	1.02
TGTGGCGCCG	0.996
CAAGTCTCGT	0.984
GGACGGCCTT	1.03
TGAATTGCT	1.03
TAGACACCTC	0.946
TCATTGAGGG	0.966
TTGTCAATGG	2.17
GTCAATCAGC	0.993
ACCAAACATT	1.08
TGTTCCCAGA	0.969
GGGTTCCATG	0.988
ATAGCACAGT	1.31

Sequence	switch fluorescence ratio
AAAAGCCGTC	1
GTCCACCG	0.986
ATGTTGACGG	0.977
TCAGGAGGA	0.994
AGGAGACCTT	1.22
TTTATTCTGG	0.986
TCACGATGCT	1.02
TTGTTTTGGA	0.984
AAACCCCGGC	1.17
CTAGTCAACA	0.989
CTTGGGTTAT	0.98
AGTCTAAAAA	1.02
ATGCTGACTT	0.957
TTTCGGGAG	1.08
TCGGTTTAAG	0.967
AATATACTCG	1
TATGATCATG	0.988
TCGGAACCAC	1.1
CCCACCCGTG	1.24
GCTGCTGATG	0.983
